Experimental data: PMC12820563
The list shows a part of the results. The list includes weakly bound sequences.

What follows are sequences tested against T1, MBP-FoxP3dN (UniProt Q99JB6) (assay: PD-seq (MBP pull-down with sequencing)). Conditions: 20 mM Tris-HCl pH 7.5, 100 mM NaCl, 1.5 mM MgCl2, 0.4 uM protein, 0.1 uM dsDNA library, 30 min, room temperature, amylose pull-down; high values mean tight binding; double strand, one strand shown.
T1 sequence: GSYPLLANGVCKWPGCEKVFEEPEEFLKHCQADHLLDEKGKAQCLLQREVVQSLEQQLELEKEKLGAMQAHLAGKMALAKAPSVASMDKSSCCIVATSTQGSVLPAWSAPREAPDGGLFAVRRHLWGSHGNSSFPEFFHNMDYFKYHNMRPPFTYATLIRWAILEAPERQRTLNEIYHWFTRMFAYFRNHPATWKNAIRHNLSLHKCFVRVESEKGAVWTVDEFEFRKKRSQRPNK

Sequence	binding signal (RPM ratio (pull-down/input))
GATGATTGTTCTCCCAGCTGATGAATTTTTCTATTCGAGTAAACAAATTTTCCTAATCTTTCTGTTCAAGCGCCATCTAC	0.294
GATGATTGTTCTCCCAGCTGATGAATTAAAAGCCTCGAGTAAACAAATTTTCCTAATCTTTCTGTTCAAGCGCCATCTAC	0.437
GATGATTGTTCTCCCAGCTGATGAATTTCTAGCTTCGAGTAAACAAATTTTCCTAATCTTTCTGTTCAAGCGCCATCTAC	0.276
GATGATTGTTCTCCCAGCTGATGAATTCGGAGGATCGAGTAAACAAATTTTCCTAATCTTTCTGTTCAAGCGCCATCTAC	0.239
GATGATTGTTCTCCCAGCTGATGAATTACGAATCTCGAGTAAACAAATTTTCCTAATCTTTCTGTTCAAGCGCCATCTAC	1.57
GATGATTGTTCTCCCAGCTGATGAATTAATAAACTCGAGTAAACAAATTTTCCTAATCTTTCTGTTCAAGCGCCATCTAC	0.532
GATGATTGTTCTCCCAGCTGATGAATTCAGCTACTCGAGTAAACAAATTTTCCTAATCTTTCTGTTCAAGCGCCATCTAC	1.32
GATGATTGTTCTCCCAGCTGATGAATTGGTACGTTCGAGTAAACAAATTTTCCTAATCTTTCTGTTCAAGCGCCATCTAC	0.546
GATGATTGTTCTCCCAGCTGATGAATTCTGGAGTTCGAGTAAACAAATTTTCCTAATCTTTCTGTTCAAGCGCCATCTAC	0.378
GATGATTGTTCTCCCAGCTGATGAATTTCAAATATCGAGTAAACAAATTTTCCTAATCTTTCTGTTCAAGCGCCATCTAC	0.296
GATGATTGTTCTCCCAGCTGATGAATTGGCCTCCTCGAGTAAACAAATTTTCCTAATCTTTCTGTTCAAGCGCCATCTAC	1.27
GATGATTGTTCTCCCAGCTGATGAATTCTCGTGCTCGAGTAAACAAATTTTCCTAATCTTTCTGTTCAAGCGCCATCTAC	0.324
GATGATTGTTCTCCCAGCTGATGAATTGTTCAGCTCGAGTAAACAAATTTTCCTAATCTTTCTGTTCAAGCGCCATCTAC	0.309
GATGATTGTTCTCCCAGCTGATGAATTATGGAAATCGAGTAAACAAATTTTCCTAATCTTTCTGTTCAAGCGCCATCTAC	0.4
GATGATTGTTCTCCCAGCTGATGAATTCATAAACTCGAGTAAACAAATTTTCCTAATCTTTCTGTTCAAGCGCCATCTAC	0.419
GATGATTGTTCTCCCAGCTGATGAATTGACATGATCGAGTAAACAAATTTTCCTAATCTTTCTGTTCAAGCGCCATCTAC	0.467
GATGATTGTTCTCCCAGCTGATGAATTGGGTCATTCGAGTAAACAAATTTTCCTAATCTTTCTGTTCAAGCGCCATCTAC	0.64
GATGATTGTTCTCCCAGCTGATGAATTGTCATCATCGAGTAAACAAATTTTCCTAATCTTTCTGTTCAAGCGCCATCTAC	1.23
GATGATTGTTCTCCCAGCTGATGAATTCACGGCTTCGAGTAAACAAATTTTCCTAATCTTTCTGTTCAAGCGCCATCTAC	0.28
GATGATTGTTCTCCCAGCTGATGAATTGTTACAGTCGAGTAAACAAATTTTCCTAATCTTTCTGTTCAAGCGCCATCTAC	0.91
GATGATTGTTCTCCCAGCTGATGAATTTTAATATTCGAGTAAACAAATTTTCCTAATCTTTCTGTTCAAGCGCCATCTAC	1.97

Sequence	binding signal (RPM ratio (pull-down/input))
GATGATTGTTCTCCCAGCTGATGAATTAAGGTCTTCGAGTAAACAAATTTTCCTAATCTTTCTGTTCAAGCGCCATCTAC	0.429
GATGATTGTTCTCCCAGCTGATGAATTTCGACTATCGAGTAAACAAATTTTCCTAATCTTTCTGTTCAAGCGCCATCTAC	0.692
GATGATTGTTCTCCCAGCTGATGAATTGTTATGCTCGAGTAAACAAATTTTCCTAATCTTTCTGTTCAAGCGCCATCTAC	3.15
GATGATTGTTCTCCCAGCTGATGAATTATCTGACTCGAGTAAACAAATTTTCCTAATCTTTCTGTTCAAGCGCCATCTAC	0.23
GATGATTGTTCTCCCAGCTGATGAATTAAAGTCATCGAGTAAACAAATTTTCCTAATCTTTCTGTTCAAGCGCCATCTAC	0.486
GATGATTGTTCTCCCAGCTGATGAATTGTATGTCTCGAGTAAACAAATTTTCCTAATCTTTCTGTTCAAGCGCCATCTAC	2.89
GATGATTGTTCTCCCAGCTGATGAATTGGTCCGATCGAGTAAACAAATTTTCCTAATCTTTCTGTTCAAGCGCCATCTAC	0.231
GATGATTGTTCTCCCAGCTGATGAATTGCGTACGTCGAGTAAACAAATTTTCCTAATCTTTCTGTTCAAGCGCCATCTAC	1.07
GATGATTGTTCTCCCAGCTGATGAATTAGCAGTATCGAGTAAACAAATTTTCCTAATCTTTCTGTTCAAGCGCCATCTAC	0.734
GATGATTGTTCTCCCAGCTGATGAATTCATACGATCGAGTAAACAAATTTTCCTAATCTTTCTGTTCAAGCGCCATCTAC	0.338
GATGATTGTTCTCCCAGCTGATGAATTGAAGCTATCGAGTAAACAAATTTTCCTAATCTTTCTGTTCAAGCGCCATCTAC	0.54
GATGATTGTTCTCCCAGCTGATGAATTGTCCAGATCGAGTAAACAAATTTTCCTAATCTTTCTGTTCAAGCGCCATCTAC	0.184
GATGATTGTTCTCCCAGCTGATGAATTAAGCGAATCGAGTAAACAAATTTTCCTAATCTTTCTGTTCAAGCGCCATCTAC	0.343
GATGATTGTTCTCCCAGCTGATGAATTGGAGGGCTCGAGTAAACAAATTTTCCTAATCTTTCTGTTCAAGCGCCATCTAC	0.267
GATGATTGTTCTCCCAGCTGATGAATTTTTATTTTCGAGTAAACAAATTTTCCTAATCTTTCTGTTCAAGCGCCATCTAC	0.838
GATGATTGTTCTCCCAGCTGATGAATTCTTGACATCGAGTAAACAAATTTTCCTAATCTTTCTGTTCAAGCGCCATCTAC	0.383
GATGATTGTTCTCCCAGCTGATGAATTTGGAGGCTCGAGTAAACAAATTTTCCTAATCTTTCTGTTCAAGCGCCATCTAC	0.462
GATGATTGTTCTCCCAGCTGATGAATTAGAGATGTCGAGTAAACAAATTTTCCTAATCTTTCTGTTCAAGCGCCATCTAC	0.424
GATGATTGTTCTCCCAGCTGATGAATTCTGGAACTCGAGTAAACAAATTTTCCTAATCTTTCTGTTCAAGCGCCATCTAC	0.199
GATGATTGTTCTCCCAGCTGATGAATTCTTTATCTCGAGTAAACAAATTTTCCTAATCTTTCTGTTCAAGCGCCATCTAC	0.322
GATGATTGTTCTCCCAGCTGATGAATTCCATTATTCGAGTAAACAAATTTTCCTAATCTTTCTGTTCAAGCGCCATCTAC	0.887

Sequence	binding signal (RPM ratio (pull-down/input))
GATGATTGTTCTCCCAGCTGATGAATTCTGGCATTCGAGTAAACAAATTTTCCTAATCTTTCTGTTCAAGCGCCATCTAC	4.83
GATGATTGTTCTCCCAGCTGATGAATTGTCAGTGTCGAGTAAACAAATTTTCCTAATCTTTCTGTTCAAGCGCCATCTAC	0.504
GATGATTGTTCTCCCAGCTGATGAATTGAAACATTCGAGTAAACAAATTTTCCTAATCTTTCTGTTCAAGCGCCATCTAC	0.815
GATGATTGTTCTCCCAGCTGATGAATTGGGCGGATCGAGTAAACAAATTTTCCTAATCTTTCTGTTCAAGCGCCATCTAC	0.365
GATGATTGTTCTCCCAGCTGATGAATTTGTCCCTTCGAGTAAACAAATTTTCCTAATCTTTCTGTTCAAGCGCCATCTAC	3.57
GATGATTGTTCTCCCAGCTGATGAATTCTTTGGCTCGAGTAAACAAATTTTCCTAATCTTTCTGTTCAAGCGCCATCTAC	0.217
GATGATTGTTCTCCCAGCTGATGAATTCTTGATCTCGAGTAAACAAATTTTCCTAATCTTTCTGTTCAAGCGCCATCTAC	0.282
GATGATTGTTCTCCCAGCTGATGAATTGAGTTTCTCGAGTAAACAAATTTTCCTAATCTTTCTGTTCAAGCGCCATCTAC	1.19
GATGATTGTTCTCCCAGCTGATGAATTCCGAGGCTCGAGTAAACAAATTTTCCTAATCTTTCTGTTCAAGCGCCATCTAC	0.327
GATGATTGTTCTCCCAGCTGATGAATTCATAGTTTCGAGTAAACAAATTTTCCTAATCTTTCTGTTCAAGCGCCATCTAC	0.677
GATGATTGTTCTCCCAGCTGATGAATTGTCGCACTCGAGTAAACAAATTTTCCTAATCTTTCTGTTCAAGCGCCATCTAC	0.879
GATGATTGTTCTCCCAGCTGATGAATTAACGGTTTCGAGTAAACAAATTTTCCTAATCTTTCTGTTCAAGCGCCATCTAC	0.457
GATGATTGTTCTCCCAGCTGATGAATTGTTGTCGTCGAGTAAACAAATTTTCCTAATCTTTCTGTTCAAGCGCCATCTAC	5.49
GATGATTGTTCTCCCAGCTGATGAATTTGGGTCGTCGAGTAAACAAATTTTCCTAATCTTTCTGTTCAAGCGCCATCTAC	0.772
GATGATTGTTCTCCCAGCTGATGAATTAACCCTGTCGAGTAAACAAATTTTCCTAATCTTTCTGTTCAAGCGCCATCTAC	0.233
GATGATTGTTCTCCCAGCTGATGAATTTCTAAGTTCGAGTAAACAAATTTTCCTAATCTTTCTGTTCAAGCGCCATCTAC	0.256
GATGATTGTTCTCCCAGCTGATGAATTTTAGCTGTCGAGTAAACAAATTTTCCTAATCTTTCTGTTCAAGCGCCATCTAC	0.405
GATGATTGTTCTCCCAGCTGATGAATTTCGTCCTTCGAGTAAACAAATTTTCCTAATCTTTCTGTTCAAGCGCCATCTAC	0.514
GATGATTGTTCTCCCAGCTGATGAATTCTCGGTATCGAGTAAACAAATTTTCCTAATCTTTCTGTTCAAGCGCCATCTAC	0.385
GATGATTGTTCTCCCAGCTGATGAATTGTGGGTATCGAGTAAACAAATTTTCCTAATCTTTCTGTTCAAGCGCCATCTAC	1.18
GATGATTGTTCTCCCAGCTGATGAATTCGGCGGGTCGAGTAAACAAATTTTCCTAATCTTTCTGTTCAAGCGCCATCTAC	0.523
